Results reported in the antibiotic and cytotoxicity screens of Wong et al. (2023).
The other results are listed elsewhere or left out.

What was measured:
HSkMC = human skeletal muscle cells; assay: cytotoxicity call (relative viability < 0.9); details: 10 µM
HepG2 = assay: cytotoxicity call (relative viability < 0.9); details: 10 µM
S. aureus RN4220 = assay: growth inhibition call (relative growth <= 0.2); details: 50 µM

| Structure (SMILES) | cytotoxicity call (HSkMC) | cytotoxicity call (HepG2) | growth inhibition call (S. aureus RN4220) |
| --- | --- | --- | --- |
| C[C@H](CO)N1C[C@H](C)[C@H](CN(C)Cc2ccc(C(=O)Nc3ccccc3N)cc2)Oc2ccc(NC(=O)CCC(F)(F)F)cc2CC1=O | inactive | inactive | inactive |
| C[C@H]1CN([C@@H](C)CO)C(=O)Cc2cc(NS(=O)(=O)c3ccc(F)cc3)ccc2O[C@H]1CN(C)S(=O)(=O)c1ccc(F)cc1 | inactive | inactive | inactive |
| C[C@H]1CN([C@@H](C)CO)C(=O)c2cccc(NC(=O)C3CC3)c2O[C@@H]1CN(C)C(=O)Nc1ccc2c(c1)OCO2 | inactive | inactive | inactive |
| COc1ccccc1S(=O)(=O)N(C)C[C@@H]1OCc2cn(nn2)CCCC(=O)N([C@@H](C)CO)C[C@H]1C | inactive | inactive | inactive |
| C[C@@H]1CN([C@H](C)CO)S(=O)(=O)c2ccc(C#Cc3ccccn3)cc2O[C@H]1CN(C)Cc1ccccc1 | inactive | inactive | inactive |
| C[C@@H]1CN([C@@H](C)CO)C(=O)c2cccc(NS(=O)(=O)c3cccs3)c2O[C@@H]1CN(C)CC1CC1 | inactive | inactive | inactive |
| Cc1noc(C)c1NC(=O)N(C)C[C@@H]1Oc2ncc(C#Cc3ccccc3)cc2C(=O)N([C@H](C)CO)C[C@@H]1C | inactive | inactive | inactive |
| Cc1ccc(S(=O)(=O)Nc2cccc3c2O[C@H](CN(C)S(=O)(=O)c2cccs2)[C@H](C)CN([C@H](C)CO)C3=O)cc1 | inactive | inactive | inactive |
| O=C(C[C@H]1CC[C@H]2[C@@H](COC[C@@H](O)CN2S(=O)(=O)c2ccc(Oc3ccccc3)cc2)O1)NC1CCC1 | inactive | inactive | inactive |
| CO[C@H](CN(C)C(=O)c1ccccc1F)[C@H](C)CN([C@H](C)CO)S(=O)(=O)c1ccc(Cl)cc1 | inactive | inactive | inactive |
| O=C1O[C@@H]2C[C@H]1N(C(=O)[C@@H]1CC=CCC1)C2 | inactive | inactive | inactive |
| COc1ccc(S(=O)(=O)Nc2ccc3c(c2)C(=O)N([C@@H](C)CO)C[C@H](C)[C@@H](CN(C)C(=O)Nc2cccc4ccccc24)O3)cc1 | inactive | inactive | inactive |
| O=C(C[C@@H]1CC[C@@H]2[C@H](COC[C@H](O)CN2C(=O)Nc2ccc(C(F)(F)F)cc2)O1)NCCc1ccncc1 | inactive | inactive | inactive |
| C[C@H](CO)N1C[C@H](C)[C@H](CN(C)C(=O)Nc2cccc3ccccc23)Oc2ccc(NC(=O)Cn3cnnn3)cc2C1=O | inactive | inactive | inactive |
| Br.Cn1c(=O)c2c(ncn2C)n(C)c1=O | inactive | inactive | inactive |
| CC(=O)N(C)C[C@@H]1Oc2ncc(C#C[C@@H](C)O)cc2C(=O)N([C@@H](C)CO)C[C@@H]1C | inactive | inactive | inactive |
| COc1ccc(NC(=O)Nc2cccc3c2O[C@H](CN(C)Cc2ccc(C(=O)Nc4ccccc4N)cc2)[C@H](C)CN([C@@H](C)CO)C3=O)cc1 | inactive | inactive | inactive |
| C[C@@H]1CCCCO[C@H](CN(C)C(=O)Nc2ccc(C(F)(F)F)cc2)[C@H](C)CN([C@H](C)CO)C(=O)c2cc(NC(=O)c3ccncc3)ccc2O1 | inactive | inactive | inactive |
| Cc1ccc(S(=O)(=O)Nc2ccc3c(c2)C(=O)N([C@@H](C)CO)C[C@@H](C)[C@@H](CN(C)Cc2ccc4c(c2)OCO4)OCCCC[C@H](C)O3)cc1 | inactive | inactive | inactive |
| COc1ccc(S(=O)(=O)Nc2ccc3c(c2)C(=O)N([C@@H](C)CO)C[C@@H](C)[C@@H](CN(C)C(=O)Nc2ccc(F)cc2)OCCCC[C@H](C)O3)cc1 | inactive | inactive | inactive |
| CNC[C@H]1OCCCC[C@@H](C)Oc2ccc(NC(=O)c3ccncc3)cc2C(=O)N([C@H](C)CO)C[C@@H]1C | inactive | inactive | inactive |
| Cc1noc(C)c1S(=O)(=O)Nc1ccc2c(c1)CC(=O)N([C@H](C)CO)C[C@H](C)[C@@H](CN(C)C(=O)NC1CCCCC1)O2 | inactive | inactive | inactive |
| Cc1noc(C)c1NC(=O)Nc1ccc2c(c1)CC(=O)N([C@@H](C)CO)C[C@H](C)[C@@H](CN(C)CC1CC1)O2 | inactive | inactive | inactive |
| COc1ccc(NC(=O)Nc2ccc3c(c2)C(=O)N([C@@H](C)CO)C[C@H](C)[C@@H](CN(C)Cc2ccc(C(=O)O)cc2)OCCCC[C@H](C)O3)cc1 | inactive | inactive | inactive |
| C[C@@H]1CN([C@H](C)CO)C(=O)Cc2cc(NC(=O)C3CC3)ccc2O[C@@H]1CN(C)C(=O)Nc1ccc2c(c1)OCO2 | inactive | inactive | inactive |
| C[C@H](CO)N1C[C@H](C)[C@H](CN(C)S(C)(=O)=O)Oc2ccc(NC(=O)Cc3ccccc3)cc2CC1=O | inactive | inactive | inactive |
| COCC(=O)Nc1ccc2c(c1)OC[C@@H](C)N(C(=O)Cc1cccnc1)C[C@@H](C)[C@H](OC)CN(C)C2=O | inactive | inactive | inactive |

| Structure (SMILES) | cytotoxicity call (HSkMC) | cytotoxicity call (HepG2) | growth inhibition call (S. aureus RN4220) |
| --- | --- | --- | --- |
| C[C@@H]1CN([C@H](C)CO)C(=O)c2cc(Br)cnc2O[C@@H]1CN(C)Cc1ccc2c(c1)OCO2 | inactive | inactive | inactive |
| Cc1ccc(S(=O)(=O)N(C)C[C@@H]2OCCCC[C@@H](C)Oc3ccc(NS(C)(=O)=O)cc3C(=O)N([C@@H](C)CO)C[C@@H]2C)cc1 | inactive | inactive | inactive |
| CCOc1ccc(S(=O)(=O)[O-])c2cccnc12.[Na+] | inactive | inactive | inactive |
| O=C(NCc1nc2ccccc2[nH]1)C1=C[C@@H](c2csc3ccccc23)C[C@@H](OCc2ccc(CO)cc2)O1 | inactive | inactive | inactive |
| C[C@H](CO)N1C[C@H](C)[C@@H](CN(C)C(=O)Nc2ccccc2)Oc2ccc(NS(C)(=O)=O)cc2CC1=O | inactive | inactive | inactive |
| C[C@H](CO)N1C[C@H](C)[C@@H](CN(C)Cc2ccccc2)Oc2c(NC(=O)C3CCOCC3)cccc2C1=O | inactive | inactive | inactive |
| CCS(=O)(=O)Nc1ccc2c(c1)C(=O)N(C)[C@H]1CC[C@@H](CC(=O)N3CCN(C)CC3)O[C@@H]1CO2 | inactive | inactive | inactive |
| COc1ccc(S(=O)(=O)Nc2cccc3c2O[C@@H](CN(C)Cc2ccncc2)[C@@H](C)CN([C@H](C)CO)C3=O)cc1 | inactive | inactive | inactive |
| C[C@@H](O[C@H]1OCCN(Cc2n[nH]nc2CN(C)C)[C@H]1c1ccc(F)cc1)c1cc(C(F)(F)F)cc(C(F)(F)F)c1 | inactive | active | active |
| C[C@@H]1CN([C@H](C)CO)C(=O)Cc2cc(NC(=O)Cc3ccccc3)ccc2O[C@H]1CN(C)S(C)(=O)=O | inactive | inactive | inactive |
| Cc1ccccc1Nc1nnc(C)c(=O)n1N | inactive | inactive | inactive |
| CCCCNc1cc(C(=O)O)cc(S(N)(=O)=O)c1Oc1ccccc1 | inactive | inactive | inactive |
| C[C@H](CO)N1C[C@H](C)[C@@H](CN(C)C(=O)Nc2ccc(C(F)(F)F)cc2)Oc2ccc(NC(=O)Cn3cnnn3)cc2C1=O | inactive | inactive | inactive |
| Cc1ccc(S(=O)(=O)N(C)C[C@@H]2OCCCC[C@H](C)Oc3ccc(NS(=O)(=O)c4ccc(Cl)cc4)cc3C(=O)N([C@@H](C)CO)C[C@H]2C)cc1 | inactive | inactive | inactive |
| C[C@H]1CN([C@@H](C)CO)C(=O)CCCn2nncc2CO[C@H]1CN(C)S(=O)(=O)c1cccc(C#N)c1 | inactive | inactive | inactive |
| COc1c(-c2ccccc2)oc2cc(O)cc(O)c2c1=O | inactive | inactive | inactive |
| C[C@H](CO)N1C[C@H](C)[C@H](CN(C)C(=O)C2CCOCC2)Oc2ncc(C#Cc3ccccc3F)cc2C1=O | inactive | inactive | inactive |
| C[C@@H]1CN([C@@H](C)CO)C(=O)Cc2cc(NS(=O)(=O)c3cccs3)ccc2O[C@H]1CN(C)S(=O)(=O)c1ccccc1 | inactive | inactive | inactive |
| C[C@@H]1CN([C@H](C)CO)C(=O)c2cc(NC(=O)CCC(F)(F)F)ccc2O[C@@H](C)CCCCO[C@H]1CN(C)C(=O)Nc1ccc(C(F)(F)F)cc1 | inactive | inactive | inactive |
| C[C@@H]1CCCCO[C@H](CN(C)S(=O)(=O)c2cccs2)[C@@H](C)CN([C@H](C)CO)C(=O)c2cc(NC(=O)CCCCCC(=O)Nc3ccccc3N)ccc2O1 | inactive | inactive | inactive |
| COc1ccc(NC(=O)Nc2cccc3c2O[C@@H](CN(C)C(=O)Nc2cccc4ccccc24)[C@@H](C)CN([C@H](C)CO)C3=O)cc1 | inactive | inactive | inactive |
| COc1ccc2c3c(n(c2c1)C)[C@H](CO)N(C[C@]13CN(Cc2ccncc2)C1)C(=O)CN1CCOCC1 | inactive | inactive | inactive |
| C[C@@H]1CN([C@@H](C)CO)C(=O)c2cc(NC(=O)Cn3cnnn3)ccc2O[C@@H]1CN(C)CC1CC1 | inactive | inactive | inactive |
| O=C(NCCN1CCOCC1)[C@@]1(Cc2ccccc2)N=C(c2ccc(OCCCO)cc2)O[C@H]1c1ccccc1 | inactive | inactive | inactive |
| Cc1ccc(S(=O)(=O)N(C)C[C@@H]2OCCCC[C@H](C)Oc3ccc(NC(=O)Nc4c(C)noc4C)cc3C(=O)N([C@@H](C)CO)C[C@H]2C)cc1 | inactive | inactive | inactive |
| Cc1ccc(-c2ccc3c(c2)O[C@H](CN(C)C(=O)Nc2ccc(C(F)(F)F)cc2)[C@@H](C)CN([C@H](C)CO)S3(=O)=O)cc1 | inactive | inactive | inactive |
| COCC#Cc1ccc2c(c1)O[C@H](CN(C)S(=O)(=O)c1ccc(OC)cc1)[C@H](C)CN([C@@H](C)CO)S2(=O)=O | inactive | inactive | inactive |
